Assay results published in PubChem BioAssay AID624417 (National Center for Advancing Translational Sciences (NCATS), 2012).
About 6,400 (1.6%) of roughly 410,000 compounds were called active. Inconclusive results, whose numbers are uncertain, are shown with a selection of clear calls. Calls follow the shape of the dose curve; as a rule, active = well fitted inhibition curve with a large enough effect; inconclusive = small, poorly fitted or top-dose-only effect; inactive = no such curve, though single readings can be large or run the other way. No potency is given beside an inconclusive call; the fits are too rough.
% is scaled to controls: 0 for no effect and ±100 for the full control effect; potency is read from the fitted curve at half-maximal effect; tags tell the direction and shape of the fitted curve.
Also: nearly all actives have a fitted effect of over 55% in size.

The compounds below were run against Glucagon-like peptide 1 receptor (Homo sapiens) (UniProt P43220) (assay: qHTS of GLP-1 Receptor Inverse Agonists (Inhibition Mode)). Settings: HEK293 GLP-1R CRE-luciferase, luminescence, 24 h, GLP-1R form is constitutively active; activity change, negative = inhibition: at 38.3 µM (top of the series) unless noted.
Chain of UniProt P43220 (P43220 whole entry, looked up): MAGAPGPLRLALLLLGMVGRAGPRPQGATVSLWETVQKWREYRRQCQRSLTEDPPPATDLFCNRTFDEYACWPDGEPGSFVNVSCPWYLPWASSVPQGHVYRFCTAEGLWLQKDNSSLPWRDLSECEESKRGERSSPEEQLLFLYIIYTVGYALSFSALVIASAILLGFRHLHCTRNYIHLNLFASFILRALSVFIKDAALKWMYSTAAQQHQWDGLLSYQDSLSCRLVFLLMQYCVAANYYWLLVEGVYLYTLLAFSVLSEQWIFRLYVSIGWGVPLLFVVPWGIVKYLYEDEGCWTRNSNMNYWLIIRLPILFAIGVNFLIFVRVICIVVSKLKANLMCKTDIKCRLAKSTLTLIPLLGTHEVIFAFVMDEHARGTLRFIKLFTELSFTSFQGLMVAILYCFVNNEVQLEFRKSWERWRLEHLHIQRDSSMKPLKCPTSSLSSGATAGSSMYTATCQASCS
Method in brief: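 Cells are plated, allowed 12 hours at 37 deg C, then treated with compounds for 24 hr before luciferase detection reagent is added and luminescence is read after 12 min at room temperature. The HEK293 line carries constitutively active GLP-1R with a cAMP-responsive reporter.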
`COC(=O)N1C2CCCCC2=NN(c2ccccc2)N1C(=O)OC` (stereo not drawn) was tested, and the Potency was inconclusive [inhibitor, single point]. In the case of `COc1ccccc1NC(=O)Nc1nc(CC(=O)Nc2cc(F)ccc2F)cs1`, the Potency is reported as active: 5.62 µM. `CCCCc1nn(-c2cc(Cl)ccc2OC)c2c1C(=O)CCC2` was tested, and the Potency was inconclusive [inhibitor, single point]. With `COc1ccc(-c2[nH]n(-c3ccc([N+](=O)[O-])cc3)c(=O)c2C=NCc2ccncc2)cc1` the Potency was inconclusive [inhibitor, partial curve, poor fit]. With `Clc1ccc2c(c1)-c1ccccc1C1=NCCN12` the Potency was active: 3.98 µM. `Cc1ccc(S(=O)(=O)N2CCC(=O)N([C@H](COCc3cccc(C(F)(F)F)c3)C(C)C)CC2)cc1` was tested, and the Potency was inconclusive [inhibitor, single point]. `CO/N=C(/CS(=O)(=O)c1ccc(Br)cc1)c1ccc(OC)cc1` was tested, and the Potency was inconclusive [inhibitor, full curve, poor fit]. `CC(C)[C@H](NS(=O)(=O)c1cccc(C(F)(F)F)c1)C(=O)OCC(=O)NC(=O)NCc1ccco1` was tested, and the Potency was inconclusive [inhibitor, single point]. For `Cc1ccc(S(=O)(=O)N2CCN(C(=O)c3cc(=O)[nH]c4ccccc34)CC2)c(C)c1`, the “activity change, negative = inhibition” value was inactive: 0%. `CCOc1ccc(NC(=O)CNC(=O)c2nn(-c3ccc(OC)c(OC)c3)c(=O)c3ccccc23)cc1` was tested, and the “activity change, negative = inhibition” value was inactive: 53.4%. `COc1ccccc1N(CC(=O)N/N=C/c1c(O)ccc2ccccc12)S(C)(=O)=O` was tested, and the Potency was inconclusive [inhibitor, partial curve, poor fit]. `Cc1ccc(-c2nc(C#N)c(N3CCC(C(N)=O)CC3)o2)cc1` was tested, and the “activity change, negative = inhibition” value was inactive: 1.35%. For `O=C(COc1cccc(C(F)(F)F)c1)Nc1cccc(S(=O)(=O)NC2=NCCCCC2)c1`, the Potency was inconclusive [inhibitor, single point]. For `Fc1ccc2[nH]c3c(N4CCN(c5ccccc5)CC4)ncnc3c2c1`, the Potency was inconclusive [inhibitor, single point]. With `CCOC(=O)[C@H]1[C@H]2COc3ccc(Cl)cc3[C@@H]2N2C(=O)CN(Cc3ccccc3)C(=O)[C@@]12C` the Potency was inconclusive [inhibitor, single point]. For `CCc1cccc(NC(c2ccccc2)c2nnc(-c3ccccc3F)o2)c1` (stereo not drawn), the Potency was inconclusive [inhibitor, partial curve, poor fit]. In the case of `O=C(CSc1ncccn1)Nc1ccc2[nH]c(=O)[nH]c2c1`, the “activity change, negative = inhibition” value is reported as inactive: 20.7%. `CCOc1ccc(S(=O)(=O)N2CCCC(C(=O)NCc3ccccn3)C2)cc1Cl` (stereo not drawn) was tested, and the Potency was inconclusive [inhibitor, partial curve, poor fit]. With `CCC(C)(c1nnnn1-c1c(C)cccc1C)N(N=O)c1cccc(C(F)(F)F)c1` (stereo not drawn) the Potency was inconclusive [inhibitor, partial curve, poor fit]. For `O=C(CSc1nc2ccccc2s1)NCCOc1ccccc1`, the Potency was inconclusive [inhibitor, partial curve, poor fit]. `CCc1ccccc1Nc1ncnc2c1cnn2-c1ccc(C)cc1C` was tested, and the Potency was active: 12.6 µM. For `Fc1ccc(-c2[nH]ncc2CN(CC2CCC2)CC2CCCO2)c(F)c1` (stereo not drawn), the Potency was inconclusive [inhibitor, partial curve, poor fit]. In the case of `COc1ccc(C(=O)Nc2nnc(S(=O)(=O)N(C)c3ccc(C)cc3)s2)cc1`, the “activity change, negative = inhibition” value is reported as inactive: 11.1%. `CN1OC[C@@H]2CN(Cc3ccccc3)[C@H](c3cccc(Oc4ccccc4)c3)C[C@@H]21` was tested, and the Potency was inconclusive [inhibitor, single point]. For `Cc1ccc(C(=O)N/C(=C\c2cccs2)C(=O)N2CCCCCC2)cc1`, the Potency was inconclusive [inhibitor, single point]. `CCc1cc(=O)oc2c(C)c(OCC(=O)N3CCCc4ccccc43)ccc12` was tested, and the Potency was inconclusive [inhibitor, single point]. With `Cc1cccc(OCC(=O)N2CCN(c3nnc(-c4ccccc4)c4ccccc34)CC2)c1` the Potency was inconclusive [inhibitor, full curve, poor fit]. With `COc1ccc(-c2sc3ccc(OC)cc3c2-c2ccc(OC)nc2)cc1` the Potency was inconclusive [inhibitor, partial curve, poor fit]. For `O=C(Nc1cccnc1)c1cccc(-c2cc3ccccc3oc2=O)c1`, the “activity change, negative = inhibition” value was inactive: 21.6%. In the case of `O=c1c2ccccc2nc(-c2ccc(Cl)cc2)n1CCCOc1ccccc1F`, the “activity change, negative = inhibition” value is reported as inactive: 1.93%. For `O=C(NCCc1ccc(Cl)cc1)C1CCN(C(=O)c2sccc2-n2cccc2)CC1`, the Potency was inconclusive [inhibitor, single point]. `O=C(Nc1ccccn1)c1onc2c1CCCC2` was tested, and the Potency was active: 2.51 µM. For `CCOC(=O)Cn1c(=N)n(CCOc2cccc(C)c2)c2ccccc21`, the “activity change, negative = inhibition” value was inactive: -9.38%. With `C[C@@H]1CCCCO[C@@H](CN(C)Cc2ccccc2)[C@@H](C)CN([C@H](C)CO)C(=O)c2cc(NC(=O)Nc3cccc4ccccc34)ccc2O1` the Potency was inconclusive [inhibitor, single point]. `O=C(Nc1cccc(-c2cn3ccccc3n2)c1)c1ccccc1` was tested, and the Potency was inconclusive [inhibitor, single point]. `NC(N)=NN=C1CCCCCCCCCCC1` was tested, and the Potency was inconclusive [inhibitor, partial curve, poor fit]. For `O=C(c1cc2n(n1)C(C(F)(F)F)CC(c1ccco1)N2)N1CCN(c2ccccn2)CC1` (stereo not drawn), the Potency was inconclusive [inhibitor, full curve, poor fit]. `Cc1nn(CCC(=O)NNC(=S)Nc2ccccc2)c(C)c1Br` was tested, and the “activity change, negative = inhibition” value was inactive: -8.38%. `Cc1c(C(=O)OCC(C)C)[nH]c2c1C(=O)CC(c1cccs1)C2` (stereo not drawn) was tested, and the Potency was inconclusive [inhibitor, full curve, poor fit]. With `CC1=C(C(=O)Nc2cccc(C(=O)NC3CCCC(C)C3C)c2)SCCO1` (stereo not drawn) the Potency was inconclusive [inhibitor, partial curve, poor fit]. `Cc1ccc2nc(/N=C(\N)NC(=O)NC3CCCCC3)nc(C)c2c1` was tested, and the Potency was inconclusive [inhibitor, partial curve, poor fit]. With `CC(C)Cn1cc(C(=O)NCC2CCCO2)c2c3ccccc3n(C)c2c1=O` (stereo not drawn) the “activity change, negative = inhibition” value was inactive: 3.14%. With `Cc1ccc(-c2cc(-c3cccs3)[nH]n2)c(O)c1` the Potency was inconclusive [inhibitor, single point]. `Cc1cc(Nc2ccc3c(c2)OCCO3)c2cccc(C)c2n1` was tested, and the Potency was inconclusive [inhibitor, single point]. `CC(C)Cc1ccc(CN2CCCC(NC(=O)c3ccnn3C)C2)cc1` (stereo not drawn) was tested, and the Potency was inconclusive [inhibitor, partial curve, poor fit]. In the case of `CCS(=O)(=O)c1c(Nc2cc(C)ccc2C)sc(C(=O)c2ccccc2)c1N`, the Potency is reported as inconclusive [inhibitor, single point]. With `O=S(=O)(Cc1ccc(Cl)cc1Cl)c1ccc(Cl)cc1` the Potency was active: 12.6 µM. In the case of `COc1cccc(NC(=O)N(Cc2cc3cc(C)cc(C)c3[nH]c2=O)CC2COCCO2)c1` (stereo not drawn), the Potency is reported as inconclusive [inhibitor, single point]. In the case of `CC1CN(C(=S)SCC(=O)c2ccc(Cl)cc2)CC(C)O1` (stereo not drawn), the Potency is reported as inconclusive [inhibitor, partial curve]. `CC1=C(C(=O)Nc2ccccc2)C(c2cc(Br)ccc2F)n2ncc(C(=O)Nc3ccccc3)c2N1` (stereo not drawn) was tested, and the Potency was inconclusive [inhibitor, partial curve, poor fit]. In the case of `CSc1ccccc1OCc1cc(C(=O)NCCN2CCCc3ccccc32)no1`, the Potency is reported as inconclusive [inhibitor, partial curve, poor fit]. For `Cc1cc2nc(-c3ccc(SCc4ccc(C(=O)O)cc4)nc3)[nH]c2cc1C`, the “activity change, negative = inhibition” value was inactive: 4.35%. In the case of `COc1cccc(-c2nc(S(=O)(=O)c3ccccc3)c(N3CCC(C)CC3)o2)c1`, the Potency is reported as inconclusive [inhibitor, single point]. `Cc1cccc(-c2cccc(NC(=O)C3CCCN(Cc4cccnc4)C3)c2)c1` (stereo not drawn) was tested, and the Potency was inconclusive [inhibitor, partial curve, poor fit]. In the case of `CCN1CCN(C(c2ccc(F)cc2)c2nnnn2Cc2ccc3c(c2)OCO3)CC1` (stereo not drawn), the Potency is reported as inconclusive [inhibitor, single point]. `Nc1nc(C2CC2)c(Sc2sc(N)nc2C2CC2)s1` was tested, and the Potency was inconclusive [inhibitor, single point]. `Cn1c(=O)n(CC(=O)OCc2ccccc2)c(=O)c2c1nc1n2CCCN1C1CCCCC1` was tested, and the Potency was inconclusive [inhibitor, full curve, poor fit]. `CC(=O)c1ccc([C@@H]2C[C@]34CN(Cc5cccc(C(F)(F)F)c5)S(=O)(=O)[C@H]3C[C@H]2O4)cc1` was tested, and the Potency was inconclusive [inhibitor, partial curve]. `Cc1nc(N2CCCC2)ncc1C(=O)N1CCN(c2ccccc2F)CC1` was tested, and the “activity change, negative = inhibition” value was inactive: 4.27%. With `O=C(COc1ccc(Cl)cc1)NCC(c1ccco1)S(=O)(=O)c1ccc(Cl)cc1` (stereo not drawn) the Potency was inconclusive [inhibitor, single point]. `Cn1c(=O)c2c(nc(NCc3ccc4c(c3)OCO4)n2Cc2ccc(F)cc2)n(C)c1=O` was tested, and the Potency was inconclusive [inhibitor, single point]. In the case of `O=[N+]([O-])c1ccc(/C=N/n2cnc3ccccc32)s1`, the “activity change, negative = inhibition” value is reported as inactive: 134%. With `COc1cc(OC)cc(-c2c(-c3cccs3)c3cc(-c4ccc5[nH]ccc5c4)ccc3n2C)c1` the Potency was inconclusive [inhibitor, full curve].
